From PMC12820563, “FoxP3 forms a head-to-head dimer in vivo and stabilizes its multimerization on adjacent microsatellites”
The other results are listed elsewhere or left out.

molecular target: T1, MBP-FoxP1dN (Mus musculus, UniProt P58462 326-579); experiment: PD-seq (MBP pull-down with sequencing); 20 mM Tris-HCl pH 7.5, 100 mM NaCl, 1.5 mM MgCl2, 0.4 uM protein, 0.1 uM dsDNA library, 30 min, room temperature, amylose pull-down; high values mean tight binding; details: protein: recombinant; tags: His6-MBP; chain copies: 2; dsDNA, one strand shown
T1 sequence: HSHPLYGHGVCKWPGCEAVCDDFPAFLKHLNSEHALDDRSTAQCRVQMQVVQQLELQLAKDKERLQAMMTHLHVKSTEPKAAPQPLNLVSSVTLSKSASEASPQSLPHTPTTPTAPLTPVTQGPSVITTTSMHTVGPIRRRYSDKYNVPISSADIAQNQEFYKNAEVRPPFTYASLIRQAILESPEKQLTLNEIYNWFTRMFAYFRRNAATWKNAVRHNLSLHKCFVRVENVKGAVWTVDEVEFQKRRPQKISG
Outline: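 Binding is reads-per-million enrichment of pull-down over input, with replicates pooled. It comes from 30 min room-temperature incubation in Tris pH 7.5 buffer with NaCl and MgCl2 of 0.4 µM His6-MBP-tagged, N-terminally truncated mouse FoxP3 or FoxP1 fragment from E. coli with 0.1 µM Klenow-filled degenerate double-stranded DNA library, followed by amylose resin capture, three washes and Illumina sequencing of the released DNA.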

Sequence	binding signal
GATGATTGTTCTCCCAGCTGATGAATTCCCCAACTCGAGTAAACAAATTTTCCTAATCTTTCTGTTCAAGCGCCATCTAC	0.882 RPM ratio (pull-down/input)
GATGATTGTTCTCCCAGCTGATGAATTACGGCCATCGAGTAAACAAATTTTCCTAATCTTTCTGTTCAAGCGCCATCTAC	0.899 RPM ratio (pull-down/input)
GATGATTGTTCTCCCAGCTGATGAATTCTTGTTATCGAGTAAACAAATTTTCCTAATCTTTCTGTTCAAGCGCCATCTAC	2.09 RPM ratio (pull-down/input)
GATGATTGTTCTCCCAGCTGATGAATTCTAAATTTCGAGTAAACAAATTTTCCTAATCTTTCTGTTCAAGCGCCATCTAC	0.877 RPM ratio (pull-down/input)
GATGATTGTTCTCCCAGCTGATGAATTAGCGAACTCGAGTAAACAAATTTTCCTAATCTTTCTGTTCAAGCGCCATCTAC	0.828 RPM ratio (pull-down/input)
GATGATTGTTCTCCCAGCTGATGAATTAGATTGTTCGAGTAAACAAATTTTCCTAATCTTTCTGTTCAAGCGCCATCTAC	1.02 RPM ratio (pull-down/input)
GATGATTGTTCTCCCAGCTGATGAATTGAACCGTTCGAGTAAACAAATTTTCCTAATCTTTCTGTTCAAGCGCCATCTAC	0.853 RPM ratio (pull-down/input)
GATGATTGTTCTCCCAGCTGATGAATTGAGGCTGTCGAGTAAACAAATTTTCCTAATCTTTCTGTTCAAGCGCCATCTAC	0.891 RPM ratio (pull-down/input)
GATGATTGTTCTCCCAGCTGATGAATTTGACTATTCGAGTAAACAAATTTTCCTAATCTTTCTGTTCAAGCGCCATCTAC	0.903 RPM ratio (pull-down/input)
GATGATTGTTCTCCCAGCTGATGAATTCTTGCGGTCGAGTAAACAAATTTTCCTAATCTTTCTGTTCAAGCGCCATCTAC	0.786 RPM ratio (pull-down/input)
GATGATTGTTCTCCCAGCTGATGAATTGCAAGTTTCGAGTAAACAAATTTTCCTAATCTTTCTGTTCAAGCGCCATCTAC	1.22 RPM ratio (pull-down/input)
GATGATTGTTCTCCCAGCTGATGAATTAGGCAGGTCGAGTAAACAAATTTTCCTAATCTTTCTGTTCAAGCGCCATCTAC	0.851 RPM ratio (pull-down/input)
GATGATTGTTCTCCCAGCTGATGAATTATCGACGTCGAGTAAACAAATTTTCCTAATCTTTCTGTTCAAGCGCCATCTAC	0.937 RPM ratio (pull-down/input)
GATGATTGTTCTCCCAGCTGATGAATTATCTTAATCGAGTAAACAAATTTTCCTAATCTTTCTGTTCAAGCGCCATCTAC	1.13 RPM ratio (pull-down/input)
GATGATTGTTCTCCCAGCTGATGAATTGACCCACTCGAGTAAACAAATTTTCCTAATCTTTCTGTTCAAGCGCCATCTAC	0.9 RPM ratio (pull-down/input)
GATGATTGTTCTCCCAGCTGATGAATTTTCGTGATCGAGTAAACAAATTTTCCTAATCTTTCTGTTCAAGCGCCATCTAC	0.936 RPM ratio (pull-down/input)
GATGATTGTTCTCCCAGCTGATGAATTGTGACGGTCGAGTAAACAAATTTTCCTAATCTTTCTGTTCAAGCGCCATCTAC	1.05 RPM ratio (pull-down/input)
GATGATTGTTCTCCCAGCTGATGAATTGTGTTCGTCGAGTAAACAAATTTTCCTAATCTTTCTGTTCAAGCGCCATCTAC	1.22 RPM ratio (pull-down/input)
GATGATTGTTCTCCCAGCTGATGAATTTGCCATATCGAGTAAACAAATTTTCCTAATCTTTCTGTTCAAGCGCCATCTAC	0.966 RPM ratio (pull-down/input)
GATGATTGTTCTCCCAGCTGATGAATTCATTCTGTCGAGTAAACAAATTTTCCTAATCTTTCTGTTCAAGCGCCATCTAC	0.822 RPM ratio (pull-down/input)
GATGATTGTTCTCCCAGCTGATGAATTCGCGGCATCGAGTAAACAAATTTTCCTAATCTTTCTGTTCAAGCGCCATCTAC	0.924 RPM ratio (pull-down/input)

Sequence	binding signal
GATGATTGTTCTCCCAGCTGATGAATTTAAGTGCTCGAGTAAACAAATTTTCCTAATCTTTCTGTTCAAGCGCCATCTAC	0.874 RPM ratio (pull-down/input)
GATGATTGTTCTCCCAGCTGATGAATTCTGATACTCGAGTAAACAAATTTTCCTAATCTTTCTGTTCAAGCGCCATCTAC	0.872 RPM ratio (pull-down/input)
GATGATTGTTCTCCCAGCTGATGAATTTTGGTCTTCGAGTAAACAAATTTTCCTAATCTTTCTGTTCAAGCGCCATCTAC	0.862 RPM ratio (pull-down/input)
GATGATTGTTCTCCCAGCTGATGAATTACGAGTTTCGAGTAAACAAATTTTCCTAATCTTTCTGTTCAAGCGCCATCTAC	1.01 RPM ratio (pull-down/input)
GATGATTGTTCTCCCAGCTGATGAATTCCAGGTATCGAGTAAACAAATTTTCCTAATCTTTCTGTTCAAGCGCCATCTAC	0.862 RPM ratio (pull-down/input)
GATGATTGTTCTCCCAGCTGATGAATTTGCGGATTCGAGTAAACAAATTTTCCTAATCTTTCTGTTCAAGCGCCATCTAC	1.02 RPM ratio (pull-down/input)
GATGATTGTTCTCCCAGCTGATGAATTCGGTGCCTCGAGTAAACAAATTTTCCTAATCTTTCTGTTCAAGCGCCATCTAC	0.898 RPM ratio (pull-down/input)
GATGATTGTTCTCCCAGCTGATGAATTCACTGCTTCGAGTAAACAAATTTTCCTAATCTTTCTGTTCAAGCGCCATCTAC	0.91 RPM ratio (pull-down/input)
GATGATTGTTCTCCCAGCTGATGAATTGCATAACTCGAGTAAACAAATTTTCCTAATCTTTCTGTTCAAGCGCCATCTAC	1.17 RPM ratio (pull-down/input)
GATGATTGTTCTCCCAGCTGATGAATTTCCTAGTTCGAGTAAACAAATTTTCCTAATCTTTCTGTTCAAGCGCCATCTAC	0.842 RPM ratio (pull-down/input)
GATGATTGTTCTCCCAGCTGATGAATTCTTACTGTCGAGTAAACAAATTTTCCTAATCTTTCTGTTCAAGCGCCATCTAC	0.95 RPM ratio (pull-down/input)
GATGATTGTTCTCCCAGCTGATGAATTATCGTATTCGAGTAAACAAATTTTCCTAATCTTTCTGTTCAAGCGCCATCTAC	1.12 RPM ratio (pull-down/input)
GATGATTGTTCTCCCAGCTGATGAATTCAGCGCGTCGAGTAAACAAATTTTCCTAATCTTTCTGTTCAAGCGCCATCTAC	0.955 RPM ratio (pull-down/input)
GATGATTGTTCTCCCAGCTGATGAATTCCCGACATCGAGTAAACAAATTTTCCTAATCTTTCTGTTCAAGCGCCATCTAC	0.928 RPM ratio (pull-down/input)
GATGATTGTTCTCCCAGCTGATGAATTCTTCGCATCGAGTAAACAAATTTTCCTAATCTTTCTGTTCAAGCGCCATCTAC	1.12 RPM ratio (pull-down/input)
GATGATTGTTCTCCCAGCTGATGAATTGATTGCATCGAGTAAACAAATTTTCCTAATCTTTCTGTTCAAGCGCCATCTAC	1.53 RPM ratio (pull-down/input)
GATGATTGTTCTCCCAGCTGATGAATTGCGTCAGTCGAGTAAACAAATTTTCCTAATCTTTCTGTTCAAGCGCCATCTAC	1.02 RPM ratio (pull-down/input)
GATGATTGTTCTCCCAGCTGATGAATTTAGGATATCGAGTAAACAAATTTTCCTAATCTTTCTGTTCAAGCGCCATCTAC	1.02 RPM ratio (pull-down/input)
GATGATTGTTCTCCCAGCTGATGAATTATAAATGTCGAGTAAACAAATTTTCCTAATCTTTCTGTTCAAGCGCCATCTAC	1.11 RPM ratio (pull-down/input)
GATGATTGTTCTCCCAGCTGATGAATTTCTATGGTCGAGTAAACAAATTTTCCTAATCTTTCTGTTCAAGCGCCATCTAC	0.86 RPM ratio (pull-down/input)
GATGATTGTTCTCCCAGCTGATGAATTTCCCATGTCGAGTAAACAAATTTTCCTAATCTTTCTGTTCAAGCGCCATCTAC	0.83 RPM ratio (pull-down/input)

Sequence	binding signal
GATGATTGTTCTCCCAGCTGATGAATTAGGGTTTTCGAGTAAACAAATTTTCCTAATCTTTCTGTTCAAGCGCCATCTAC	0.936 RPM ratio (pull-down/input)
GATGATTGTTCTCCCAGCTGATGAATTTGCCCTCTCGAGTAAACAAATTTTCCTAATCTTTCTGTTCAAGCGCCATCTAC	0.831 RPM ratio (pull-down/input)
GATGATTGTTCTCCCAGCTGATGAATTAAATAGTTCGAGTAAACAAATTTTCCTAATCTTTCTGTTCAAGCGCCATCTAC	1.11 RPM ratio (pull-down/input)
GATGATTGTTCTCCCAGCTGATGAATTCTTGCCGTCGAGTAAACAAATTTTCCTAATCTTTCTGTTCAAGCGCCATCTAC	0.893 RPM ratio (pull-down/input)
GATGATTGTTCTCCCAGCTGATGAATTATATAGGTCGAGTAAACAAATTTTCCTAATCTTTCTGTTCAAGCGCCATCTAC	0.935 RPM ratio (pull-down/input)
GATGATTGTTCTCCCAGCTGATGAATTACTCGCCTCGAGTAAACAAATTTTCCTAATCTTTCTGTTCAAGCGCCATCTAC	1.04 RPM ratio (pull-down/input)
GATGATTGTTCTCCCAGCTGATGAATTAATAAGTTCGAGTAAACAAATTTTCCTAATCTTTCTGTTCAAGCGCCATCTAC	1.01 RPM ratio (pull-down/input)
GATGATTGTTCTCCCAGCTGATGAATTCAAATTCTCGAGTAAACAAATTTTCCTAATCTTTCTGTTCAAGCGCCATCTAC	0.874 RPM ratio (pull-down/input)
GATGATTGTTCTCCCAGCTGATGAATTCACACACTCGAGTAAACAAATTTTCCTAATCTTTCTGTTCAAGCGCCATCTAC	0.9 RPM ratio (pull-down/input)
GATGATTGTTCTCCCAGCTGATGAATTGGTCAAGTCGAGTAAACAAATTTTCCTAATCTTTCTGTTCAAGCGCCATCTAC	0.891 RPM ratio (pull-down/input)
GATGATTGTTCTCCCAGCTGATGAATTCAGCAGATCGAGTAAACAAATTTTCCTAATCTTTCTGTTCAAGCGCCATCTAC	0.815 RPM ratio (pull-down/input)
GATGATTGTTCTCCCAGCTGATGAATTGGTTATGTCGAGTAAACAAATTTTCCTAATCTTTCTGTTCAAGCGCCATCTAC	1.06 RPM ratio (pull-down/input)
GATGATTGTTCTCCCAGCTGATGAATTAAGGGGCTCGAGTAAACAAATTTTCCTAATCTTTCTGTTCAAGCGCCATCTAC	0.833 RPM ratio (pull-down/input)
GATGATTGTTCTCCCAGCTGATGAATTATCGATCTCGAGTAAACAAATTTTCCTAATCTTTCTGTTCAAGCGCCATCTAC	0.931 RPM ratio (pull-down/input)
GATGATTGTTCTCCCAGCTGATGAATTCGCGACCTCGAGTAAACAAATTTTCCTAATCTTTCTGTTCAAGCGCCATCTAC	0.815 RPM ratio (pull-down/input)
GATGATTGTTCTCCCAGCTGATGAATTACGGCTGTCGAGTAAACAAATTTTCCTAATCTTTCTGTTCAAGCGCCATCTAC	0.915 RPM ratio (pull-down/input)
GATGATTGTTCTCCCAGCTGATGAATTGATAACTTCGAGTAAACAAATTTTCCTAATCTTTCTGTTCAAGCGCCATCTAC	1.09 RPM ratio (pull-down/input)
GATGATTGTTCTCCCAGCTGATGAATTAGCAAGATCGAGTAAACAAATTTTCCTAATCTTTCTGTTCAAGCGCCATCTAC	0.939 RPM ratio (pull-down/input)
GATGATTGTTCTCCCAGCTGATGAATTCTACTCATCGAGTAAACAAATTTTCCTAATCTTTCTGTTCAAGCGCCATCTAC	0.906 RPM ratio (pull-down/input)
GATGATTGTTCTCCCAGCTGATGAATTTCGATTGTCGAGTAAACAAATTTTCCTAATCTTTCTGTTCAAGCGCCATCTAC	1.08 RPM ratio (pull-down/input)
GATGATTGTTCTCCCAGCTGATGAATTTGGCGAATCGAGTAAACAAATTTTCCTAATCTTTCTGTTCAAGCGCCATCTAC	0.94 RPM ratio (pull-down/input)
